Laboratory results taken from the supplement of paper PMC8728848.
The other results are listed elsewhere or left out.

Legend:
Experiment in all cases: glycan array binding signal (z-score within array); higher = stronger binding
Details in all cases: glycan notation: IUPAC condensed, linker removed
[1] = molecular target: Gal(a1-3)Gal(b1-4)GlcNAc
In short: (§1)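 From the Consortium for Functional Glycomics database, 3228 arrays were curated, keeping only those whose protein sequence was available. Binding is given as a within-array Z-score averaged across arrays sharing a protein sequence and across linkers. Negative Z-scores can be read as non-binding.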

[2] = molecular target: Gal(a1-3)Gal(b1-4)GlcNAc(b1-2)Man
In short: as §1

[3] = molecular target: Gal(a1-3)Gal(b1-4)GlcNAc(b1-2)Man(a1-3)[Gal(a1-3)Gal(b1-4)GlcNAc(b1-2)Man(a1-6)]Man(b1-4)GlcNAc(b1-4)GlcNAc
In short: as §1

[4] = molecular target: Gal(a1-3)Gal(b1-4)GlcNAc(b1-3)GalNAc
In short: as §1

[5] = molecular target: Gal(a1-3)Gal(b1-4)GlcNAc(b1-6)GalNAc
In short: as §1

[6] = molecular target: Gal(a1-3)Gal(b1-4)[Fuc(a1-3)]GlcNAc
In short: as §1

[7] = molecular target: Gal(a1-3)Gal(b1-4)[Fuc(a1-3)]GlcNAc(b1-2)Man(a1-3)[Gal(a1-3)Gal(b1-4)[Fuc(a1-3)]GlcNAc(b1-2)Man(a1-6)]Man(b1-4)GlcNAc(b1-4)GlcNAc
In short: as §1

[8] = molecular target: Gal(a1-3)GalNAc
In short: as §1

[9] = molecular target: Gal(a1-3)[Gal(a1-4)]Gal(b1-4)GlcNAc
In short: as §1

[10] = molecular target: Gal(a1-4)Gal(b1-3)GlcNAc(b1-2)Man(a1-3)[Gal(a1-4)Gal(b1-3)GlcNAc(b1-2)Man(a1-6)]Man(b1-4)GlcNAc(b1-4)GlcNAc
In short: as §1

[11] = molecular target: Gal(a1-4)Gal(b1-4)Glc
In short: as §1

[12] = molecular target: Gal(a1-4)Gal(b1-4)GlcNAc
In short: as §1

[13] = molecular target: Gal(a1-4)Gal(b1-4)GlcNAc(b1-2)Man(a1-3)[Gal(a1-4)Gal(b1-4)GlcNAc(b1-2)Man(a1-6)]Man(b1-4)GlcNAc(b1-4)GlcNAc
In short: as §1

[14] = molecular target: Gal(a1-4)Gal(b1-4)GlcNAc(b1-3)Gal(b1-4)Glc
In short: as §1

[15] = molecular target: Gal(a1-4)GlcNAc
In short: as §1

[16] = molecular target: Gal(a1-6)Glc
In short: as §1

[17] = molecular target: Gal(b1-2)Gal
In short: as §1

[18] = molecular target: Gal(b1-3)Gal
In short: as §1

[19] = molecular target: Gal(b1-3)Gal(b1-4)GlcNAc
In short: as §1

[20] = molecular target: Gal(b1-3)GalNAc
In short: as §1

[21] = molecular target: Gal(b1-3)GalNAc(a1-3)[Fuc(a1-2)]Gal(b1-4)Glc
In short: as §1

[22] = molecular target: Gal(b1-3)GalNAc(a1-3)[Fuc(a1-2)]Gal(b1-4)GlcNAc
In short: as §1

[23] = molecular target: Gal(b1-3)GalNAc(b1-3)Gal
In short: as §1

[24] = molecular target: Gal(b1-3)GalNAc(b1-3)Gal(a1-4)Gal(b1-4)Glc
In short: as §1

[25] = molecular target: Gal(b1-3)GalNAc(b1-4)Gal(b1-4)Glc
In short: as §1

[26] = molecular target: Gal(b1-3)GalNAc(b1-4)[Neu5Ac(a2-3)]Gal(b1-4)Glc
In short: as §1

[27] = molecular target: Gal(b1-3)GlcNAc
In short: as §1

[28] = molecular target: Gal(b1-3)GlcNAc(a1-3)Gal(b1-4)GlcNAc
In short: as §1

[29] = molecular target: Gal(b1-3)GlcNAc(a1-6)Gal(b1-4)GlcNAc
In short: as §1

[30] = molecular target: Gal(b1-3)GlcNAc(b1-2)Man
In short: as §1

[31] = molecular target: Gal(b1-3)GlcNAc(b1-2)Man(a1-3)[Gal(b1-3)GlcNAc(b1-2)Man(a1-6)]Man(b1-4)GlcNAc(b1-4)GlcNAc
In short: as §1

[32] = molecular target: Gal(b1-3)GlcNAc(b1-2)Man(a1-3)[Gal(b1-3)GlcNAc(b1-2)Man(a1-6)]Man(b1-4)GlcNAc(b1-4)[Fuc(a1-6)]GlcNAc
In short: as §1

[33] = molecular target: Gal(b1-3)GlcNAc(b1-2)Man(a1-3)[GlcNAc(b1-4)][Gal(b1-3)GlcNAc(b1-2)Man(a1-6)]Man(b1-4)GlcNAc(b1-4)GlcNAc
In short: as §1

[34] = molecular target: Gal(b1-3)GlcNAc(b1-2)[Gal(b1-3)GlcNAc(b1-6)]Man(a1-6)[Gal(b1-3)GlcNAc(b1-2)Man(a1-3)]Man(b1-4)GlcNAc(b1-4)GlcNAc
In short: as §1

[35] = molecular target: Gal(b1-3)GlcNAc(b1-3)Gal(b1-3)GlcNAc
In short: as §1

[36] = molecular target: Gal(b1-3)GlcNAc(b1-3)Gal(b1-4)Glc
In short: as §1

[37] = molecular target: Gal(b1-3)GlcNAc(b1-3)Gal(b1-4)GlcNAc
In short: as §1

[38] = molecular target: Gal(b1-3)GlcNAc(b1-3)Gal(b1-4)GlcNAc(b1-2)Man(a1-3)[Gal(b1-3)GlcNAc(b1-3)Gal(b1-4)GlcNAc(b1-2)Man(a1-6)]Man(b1-4)GlcNAc(b1-4)GlcNAc
In short: as §1

[39] = molecular target: Gal(b1-3)GlcNAc(b1-3)Gal(b1-4)GlcNAc(b1-2)[Gal(b1-3)GlcNAc(b1-3)Gal(b1-4)GlcNAc(b1-6)]Man(a1-6)[Gal(b1-3)GlcNAc(b1-3)Gal(b1-4)GlcNAc(b1-2)Man(a1-3)]Man(b1-4)GlcNAc(b1-4)[Fuc(a1-6)]GlcNAc
In short: as §1

[40] = molecular target: Gal(b1-3)GlcNAc(b1-3)Gal(b1-4)GlcNAc(b1-3)Gal(b1-4)GlcNAc(b1-2)[Gal(b1-3)GlcNAc(b1-3)Gal(b1-4)GlcNAc(b1-3)Gal(b1-4)GlcNAc(b1-6)]Man(a1-6)[Gal(b1-3)GlcNAc(b1-3)Gal(b1-4)GlcNAc(b1-3)Gal(b1-4)GlcNAc(b1-2)Man(a1-3)]Man(b1-4)GlcNAc(b1-4)[Fuc(a1-6)]GlcNAc
In short: as §1

[41] = molecular target: Gal(b1-3)GlcNAc(b1-3)Gal(b1-4)GlcNAc(b1-6)[Gal(b1-3)GlcNAc(b1-3)]Gal(b1-4)Glc
In short: as §1

[42] = molecular target: Gal(b1-3)GlcNAc(b1-3)Gal(b1-4)[Fuc(a1-3)]GlcNAc
In short: as §1

[43] = molecular target: Gal(b1-3)GlcNAc(b1-3)Gal(b1-4)[Fuc(a1-3)]GlcNAc(b1-6)[Gal(b1-3)GlcNAc(b1-3)]Gal(b1-4)Glc
In short: as §1

[44] = molecular target: Gal(b1-3)GlcNAc(b1-3)GalNAc
In short: as §1

[45] = molecular target: Gal(b1-3)GlcNAc(b1-6)Gal(b1-4)GlcNAc
In short: as §1

B1: CFEM-SCL (Saccharomyces cerevisiae), O13547 (protein)
chain: MRATTLLSSVVSLALLSKEVLATPPACLLACVAQVGKSSSTCDSLNQVTCYCEHENSAVKKCLDSICPNNDADAAYSAFKSSCSEQNASLGD
glycan array binding signal (z-score) [1]: -0.115 | glycan array binding signal (z-score) [2]: -0.276 | glycan array binding signal (z-score) [3]: -0.114 | glycan array binding signal (z-score) [4]: -0.281 | glycan array binding signal (z-score) [5]: -0.318 | glycan array binding signal (z-score) [6]: -0.119 | glycan array binding signal (z-score) [7]: 0.415 | glycan array binding signal (z-score) [8]: -0.147 | glycan array binding signal (z-score) [9]: -0.238 | glycan array binding signal (z-score) [10]: -0.312 | glycan array binding signal (z-score) [11]: -0.213 | glycan array binding signal (z-score) [12]: -0.056 | glycan array binding signal (z-score) [13]: -0.157 | glycan array binding signal (z-score) [14]: -0.239 | glycan array binding signal (z-score) [15]: 0.237 | glycan array binding signal (z-score) [16]: 0.231 | glycan array binding signal (z-score) [17]: 0.077 | glycan array binding signal (z-score) [18]: 4.26 | glycan array binding signal (z-score) [19]: 2.99 | glycan array binding signal (z-score) [20]: 3.86 | glycan array binding signal (z-score) [21]: 0.646 | glycan array binding signal (z-score) [22]: 0.94 | glycan array binding signal (z-score) [23]: 14.5 | glycan array binding signal (z-score) [24]: 0.829 | glycan array binding signal (z-score) [25]: 11.1 | glycan array binding signal (z-score) [26]: 2.46 | glycan array binding signal (z-score) [27]: -0.07 | glycan array binding signal (z-score) [28]: 0.016 | glycan array binding signal (z-score) [29]: -0.167 | glycan array binding signal (z-score) [30]: 0.015 | glycan array binding signal (z-score) [31]: -0.269 | glycan array binding signal (z-score) [32]: -0.181 | glycan array binding signal (z-score) [33]: -0.154 | glycan array binding signal (z-score) [34]: -0.332 | glycan array binding signal (z-score) [35]: -0.213 | glycan array binding signal (z-score) [36]: -0.258 | glycan array binding signal (z-score) [37]: -0.203 | glycan array binding signal (z-score) [38]: -0.213 | glycan array binding signal (z-score) [39]: 0.013 | glycan array binding signal (z-score) [40]: 0.038 | glycan array binding signal (z-score) [41]: 0.032 | glycan array binding signal (z-score) [42]: -0.209 | glycan array binding signal (z-score) [43]: -0.278 | glycan array binding signal (z-score) [44]: -0.298 | glycan array binding signal (z-score) [45]: -0.02
